{"source": "PubChem BioAssay AID1671188", "about": "(National Center for Advancing Translational Sciences (NCATS), 2021)", "note": "Several values for one entry are separate records, joined by “and”; a condition that tells them apart may be missing. Identical values can stand only once. Out of some 100,000 compounds screened, about 250 (0.25%) were called active. Inconclusive results, whose numbers are uncertain, are shown with a selection of clear calls. Calls follow the shape of the dose curve; as a rule, active = well fitted inhibition curve with a large enough effect; inconclusive = small, poorly fitted or top-dose-only effect; inactive = flat fitted curve, though single readings scatter. Potencies beside an inconclusive call are fits to weak or partial responses and may not hold up. % is scaled to controls: 0 for no effect and ±100 for the full control effect; potency is read from the fitted curve at half-maximal effect; tags tell the direction and shape of the fitted curve."}
{"biological_target": "Alanine aminotransferase 2 (Homo sapiens) (UniProt Q8TD30)", "sequence (Q8TD30 whole entry, looked up)": "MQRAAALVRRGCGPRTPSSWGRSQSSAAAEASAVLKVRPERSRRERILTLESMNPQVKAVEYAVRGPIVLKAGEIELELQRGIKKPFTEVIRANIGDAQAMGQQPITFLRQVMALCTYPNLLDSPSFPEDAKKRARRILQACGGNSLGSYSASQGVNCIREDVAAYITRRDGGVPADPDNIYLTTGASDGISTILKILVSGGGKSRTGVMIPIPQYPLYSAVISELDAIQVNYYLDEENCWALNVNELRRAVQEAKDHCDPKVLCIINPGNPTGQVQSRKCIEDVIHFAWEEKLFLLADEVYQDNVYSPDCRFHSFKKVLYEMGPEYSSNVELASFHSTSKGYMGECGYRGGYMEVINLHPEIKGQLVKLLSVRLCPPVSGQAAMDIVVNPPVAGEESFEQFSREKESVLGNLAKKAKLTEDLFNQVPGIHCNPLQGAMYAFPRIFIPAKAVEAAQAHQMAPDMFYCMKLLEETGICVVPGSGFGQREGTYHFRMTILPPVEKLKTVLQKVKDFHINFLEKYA", "test": "Primary qHTS assay for inhibitors of Glutamate pyruvate transaminase 2 (GPT2); also: nearly all actives have a fitted effect of over 60% in size", "conditions": "Recombinant GPT2, coupled pyruvate oxidase/HRP Amplex Red fluorescence; activity change, negative = inhibition: at 57.7 µM (top of the series) unless noted; series mostly up to 57.7 µM", "outline": "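Recombinant GPT2 (10ng/uL) with 250uM a-KG and 2mM L-alanine, 30 min at room temperature, in HEPES pH 7.5 buffer. Pyruvate detected by pyruvate oxidase/HRP/Amplex Red fluorescence after 30 min in the dark; AOA (50uM) as positive control.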"}
{"smiles": "O=C(NCCCc1ccccc1)c1n[nH]c2c1CN(C(=O)c1ccc3c(c1)OCO3)CC2", "Potency": "inconclusive: 35.5 µM [inhibitor, single point]"}
{"smiles": "Cc1cc(C)c(CNC(=O)c2cc(-c3ccccc3O)cc3c2OCCN3C)c(=O)[nH]1", "outcome": "inactive [at 88.5 µM]"}
{"smiles": "COc1ccc2c(c1)CCN=C2C[C@H]1CN(C(=O)c2cccs2)CC[C@H]1CC(=O)O", "Potency": "inconclusive: 1.26 µM [inhibitor, full curve, poor fit]"}
{"smiles": "CCC1(N2CCN(S(=O)(=O)c3ccc4c(c3)CCCC4)CC2)CCN(C(=O)C(C)C)C1", "note": "(stereo unspecified)", "Potency": "inconclusive: 39.8 µM [inhibitor, partial curve, poor fit]"}
{"smiles": "CC(C)c1ccc(CC(=O)N2CCCc3ncc(C(=O)Nc4cccc(Cl)c4)cc32)cc1", "activity change, negative = inhibition": "inactive: 3.03%"}
{"smiles": "CS(=O)(=O)N1CCC(c2nnc3n2C(C(=O)O)CC3)CC1", "note": "(stereo unspecified)", "Potency": "inconclusive: 2.82 µM [inhibitor, partial curve, poor fit]"}
{"smiles": "COc1ccc(NC(=O)Cn2nc3n(c2=O)CCCC3)cc1OC", "Potency": "inconclusive: 39.8 µM [inhibitor, single point]"}
{"smiles": "CCCCNc1nc(N)c2[nH]c(=O)n(Cc3ccc(OCCN(C)C)nc3)c2n1", "Potency": "inconclusive: 31.6 µM [inhibitor, single point]"}
{"smiles": "CCS(=O)(=O)N(C1CC1)C1CCOC2(CCN(C(=O)Cc3cccc(F)c3)CC2)C1", "note": "(stereo unspecified)", "activity change, negative = inhibition": "inactive: 1.07%"}
{"smiles": "COCCn1ncc(N2CCC(C(=O)N3CCN(C(C)C)CC3)C2)cc1=O", "note": "(stereo unspecified)", "Potency": "inconclusive: 15.8 µM [inhibitor, partial curve, poor fit]"}
{"smiles": "COc1ccc(S(=O)(=O)Nc2cccnc2Nc2ccc(O)cc2)cc1", "Potency": "inconclusive: 17.8 µM [inhibitor, partial curve, poor fit]"}
{"smiles": "CC1=C(C(=O)OC(C)C)C(c2ccccc2)NC(=O)N1", "note": "(stereo unspecified)", "Potency": "inconclusive: 39.8 µM [inhibitor, single point]"}
{"smiles": "CC(=O)N1CC2(Cc3ccccc31)CN(C(=O)Nc1ccc(Cl)cc1)C2", "activity change, negative = inhibition": "inactive: -8.62%"}
{"smiles": "O[C@@H]1C[C@@H](c2nc(Cc3ccc(F)cc3Cl)no2)N(Cc2cccs2)C1", "Potency": "inconclusive: 7.94 µM [inhibitor, single point]"}
{"smiles": "CN(C)C(=O)CNC(=O)c1cccc(S(=O)(=O)NCCn2ccnc2)c1", "Potency": "inconclusive: 35.5 µM [inhibitor, single point]"}
{"smiles": "CC1CCC2C(C)(C)C(O)C(O)CC2(C)C12Cc1c(O)cc(CO)c(C=O)c1O2", "note": "(stereo unspecified)", "Potency": "inconclusive: 0.282 µM [inhibitor, full curve, poor fit]"}
{"smiles": "c1cc(-c2cc(-c3ccncc3)c3cncn3c2)c2cc[nH]c2c1", "Potency": "inconclusive: 5.62 µM [inhibitor, full curve, poor fit]"}
{"smiles": "Nc1nc2c(ncn2COCCO)c(=O)[nH]1", "Potency": "inconclusive: 19.3 µM [inhibitor, partial curve, poor fit]"}
{"smiles": "Clc1cccc(N2CCN(C3CCCN(CCCc4ccccc4)C3)CC2)c1", "note": "(stereo unspecified)", "Potency": "inconclusive: 4.47 µM [inhibitor, single point]"}
{"smiles": "CC(C)(N)C(=O)N1CCCC(N2CCN(Cc3ccc4c(c3)OCO4)CC2)C1", "note": "(stereo unspecified)", "Potency": "inconclusive: 6.31 µM [inhibitor, single point]"}
{"smiles": "Cc1nnc(-c2cc(-c3cnn(C)c3)ccn2)n1Cc1ccccc1", "activity change, negative = inhibition": "inactive: 2.04% [at 88.5 µM]"}
{"smiles": "Cc1ccccc1S(=O)(=O)N1CCN(C2CCN(CCC(C)C)C2=O)CC1", "note": "(stereo unspecified)", "outcome": "inactive"}
{"smiles": "CCCCC(=O)NC1CCN(c2cn[nH]c(=O)c2)CC1", "outcome": "inactive"}
{"smiles": "CN(C)[S+](=O)([O-])c1ccc2c(c1)OCCN(Cc1cccc(Cl)c1)C2", "activity change, negative = inhibition": "inactive: -12.1% [at 88.5 µM]"}
{"smiles": "COc1cc2c(cc1O)CC[C@H]1[C@@H]2CC[C@]2(C)[C@H](O)CC[C@@H]12", "Potency": "inconclusive: 35.5 µM [inhibitor, single point]"}
{"smiles": "COc1cccc(-c2ccccc2CN)c1", "activity change, negative = inhibition": "inactive: -5.35% [at 88.5 µM]"}
{"smiles": "CCOc1ccc(C(=O)N2C[C@@H](COC)[C@H](c3ccncc3)C2)cc1", "Potency": "inconclusive: 6.31 µM [inhibitor, single point]"}
{"smiles": "CC(C)NCC(O)c1ccc(O)c(O)c1", "note": "(stereo unspecified)", "Potency": "active: 17.2 µM and inconclusive: 3.98 µM [inhibitor, partial curve, poor fit] and inconclusive: 1.41 µM [inhibitor, full curve, poor fit]"}
{"smiles": "Nc1ccc(O)cc1", "Potency": "inconclusive: 20 µM [inhibitor, partial curve, poor fit]"}
{"smiles": "COc1ccccc1-c1cccc(CN2CCCC(C(=O)Nc3ccc(F)cc3)C2)c1", "note": "(stereo unspecified)", "outcome": "inactive"}
{"smiles": "O=C(Nc1ccccc1)N1CCCC(c2nc(CCOCC3CCCC3)no2)C1", "note": "(stereo unspecified)", "Potency": "inconclusive: 39.8 µM [inhibitor, single point]"}
{"smiles": "Cc1cc(N2CCOCC2)cc2[nH]c(-c3c(NC[C@@H](O)c4cccc(Cl)c4)cc[nH]c3=O)nc12", "Potency": "inconclusive: 9.68 µM [inhibitor, full curve, poor fit]"}
{"smiles": "O=C(NCc1ccc(F)cc1)NC1CCc2nn(CC3CC3)c(=O)n2CC1", "note": "(stereo unspecified)", "activity change, negative = inhibition": "inactive: -13.6%"}
{"smiles": "COc1ccc(OC)c(CNC(=O)c2cccc3c2CCN3C(=O)c2ccc(F)cc2)c1", "activity change, negative = inhibition": "inactive: -12.4%"}
{"smiles": "O=C(Nc1ccccc1F)N1CC(Oc2ccc(-c3noc(-c4ccccc4)n3)cc2)C1", "outcome": "inactive"}
{"smiles": "CC(=O)OCC(=O)[C@@]1(O)[C@H](C)C[C@H]2[C@@H]3CCC4=CC(=O)C=C[C@]4(C)[C@@]3(F)[C@@H](O)C[C@@]21C", "Potency": "inconclusive: 39.8 µM [inhibitor, single point]"}
{"smiles": "COc1cc(-c2nc(CN3CCCC(CN)C3)c(C)o2)cc2c1OCO2", "note": "(stereo unspecified)", "Potency": "inconclusive: 39.8 µM [inhibitor, single point]"}
{"smiles": "O=C(Cn1ccn2nc(-c3ccc(F)cc3)c(CO)c2c1=O)Nc1cc(F)ccc1F", "Potency": "inconclusive: 6.31 µM [inhibitor, single point]"}
{"smiles": "CCC1(O)CCC12CCN(C(=O)c1ccoc1)CC2", "note": "(stereo unspecified)", "Potency": "inconclusive: 1.41 µM [inhibitor, full curve, poor fit]"}
{"smiles": "CC(C)NC(=O)[C@@H]1C[C@H](N)CN1C(=O)c1cccc(S(C)(=O)=O)c1", "Potency": "inconclusive: 3.16 µM [inhibitor, single point]"}
{"smiles": "CC(=O)O[C@@H]1C[C@]2(C)[C@@]3(CCC4[C@@]5(C)CC[C@H](O[C@@H]6O[C@H](C(=O)O)[C@@H](O)[C@H](OC7OC(CO)C(O)C(O)[C@H]7O[C@@H]7O[C@@H](C)[C@H](O)[C@@H](O)[C@H]7O[C@@H]7OC[C@](O)(CO)[C@H]7O)[C@H]6OC6OC(CO)C(O)C(O)C6O)C(C)(C)C5CC[C@]42C)OC[C@@]12CCC(C)(C)CC23", "note": "(stereo partly specified)", "Potency": "inconclusive: 1 µM [inhibitor, single point]"}
